About 550 (1.1%) of roughly 48,000 compounds were called active. Inconclusive results (about 4%) are left out. Cut-off read from the data, not from the text of the source: active = potency below about 15 µM; inconclusive = mostly about 16 µM to 33 µM; inactive = weaker than that. The list shows a part of the results.
Biological target: Lysosomal acid glucosylceramidase (Homo sapiens) (UniProt P04062)
Assay: Glucocerebrosidase;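 note: the screen sought inhibitors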
Details: purified enzyme, resorufin glucoside fluorescence (screen aimed at inhibitors), 20 min
Summary of the method: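 Wild-type enzyme at 0.2 nM final in 50mM citric acid/KH2PO4, 10mM sodium taurocholate, 0.01% tween-20, pH 5.9, with resorufin beta-D-glucopyranoside at 30 uM final. Compounds titrated, 20 min at RT, red fluorescence read; AC50 from titration.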
Potency is the fitted concentration of half-maximal effect.

Sequence of UniProt P04062 (P04062 whole entry, looked up): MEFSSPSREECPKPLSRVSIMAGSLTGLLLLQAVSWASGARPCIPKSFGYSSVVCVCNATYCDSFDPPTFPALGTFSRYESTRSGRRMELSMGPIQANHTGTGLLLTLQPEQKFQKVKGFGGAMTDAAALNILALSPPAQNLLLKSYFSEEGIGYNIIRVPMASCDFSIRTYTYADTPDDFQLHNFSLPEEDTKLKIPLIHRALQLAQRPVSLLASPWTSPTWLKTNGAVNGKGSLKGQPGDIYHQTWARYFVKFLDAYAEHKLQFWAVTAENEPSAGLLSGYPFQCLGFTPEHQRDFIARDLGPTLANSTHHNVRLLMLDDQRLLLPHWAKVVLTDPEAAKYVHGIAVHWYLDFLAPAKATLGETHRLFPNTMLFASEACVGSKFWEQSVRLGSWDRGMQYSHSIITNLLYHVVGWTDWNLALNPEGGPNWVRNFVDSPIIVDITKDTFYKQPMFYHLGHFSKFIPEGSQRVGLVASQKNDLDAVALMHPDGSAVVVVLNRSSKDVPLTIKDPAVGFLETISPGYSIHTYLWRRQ

Potency, inactive:
Cc1ccc2c(c1)NCCO2 > 76.9 µM
Cc1nn(C)cc1CNC(=O)Nc1ccc(Br)cc1Cl > 76.9 µM
CC1CCCC(NC(=O)CCn2c(=O)oc3ccccc32)C1C (stereo unspecified) > 76.9 µM
CCc1nnc(SCc2ccc(C(=O)OC)o2)n1N > 76.9 µM
CCCc1cc(=O)[nH]c(SCC(=O)N(C)CC(=O)Nc2ccc(C)cc2)n1 > 76.9 µM
Cc1ccc(Nc2cc(C)nn2-c2nc(C)cc(C)n2)cc1 > 76.9 µM
COc1ccc(C2CC(=O)c3c(C)nc(N4CCN(Cc5ccccc5)CC4)nc3C2)cc1OC (stereo unspecified) > 76.9 µM
COCCn1cc(C(=O)NCc2cccs2)c2c3ccccc3n(C)c2c1=O > 76.9 µM
COCC(C)NC(=O)c1ccc(Cl)c(Cl)c1 (stereo unspecified) > 76.9 µM
Cc1nc(SCC(=O)Nc2ccc(F)cc2)c2oc3ccccc3c2n1 > 76.9 µM
CCCNC(=O)Cn1cnc2sc(C(=O)N3CCN(CCC)CC3)c(C)c2c1=O > 76.9 µM
CC(=N/O)/C(=N\O)c1ccc(C)o1 > 76.9 µM
C=CCN(C(=O)Nc1ccc(F)cc1)C1CC(=O)N(c2ccc(OC)cc2)C1=O (stereo unspecified) > 76.9 µM
Cc1ccc(-c2nnn(CC(=O)N(CC3CCCO3)C(C(=O)NC(C)(C)C)c3ccc(F)cc3)n2)o1 (stereo unspecified) > 76.9 µM
Cc1cc(C)n2nc(SCC(=O)N(C)c3ccccc3)nc2n1 > 76.9 µM
O=C(Cc1ccccc1)Nc1ccc(NC(=O)C2CC2)nc1 > 76.9 µM
CCN(CCCn1c(=S)[nH]c2ncccc2c1=O)c1ccccc1 > 76.9 µM
CSc1nc2ccc(NC(=O)C3CCCO3)cc2s1 (stereo unspecified) > 76.9 µM
CCOC(=O)CNc1nc(C#N)nc(N2CCOCC2)n1 > 76.9 µM
CCOc1ccc2[nH]c(=O)c(CN(CCCO)C(C)=O)cc2c1 > 76.9 µM
CCS(=O)(=O)Nc1cccc(C(=O)CC2(O)C(=O)Nc3ccccc32)c1 (stereo unspecified) > 76.9 µM
COCCNC(C)C(=O)Nc1ccc(Br)cc1 (stereo unspecified) > 76.9 µM
COc1cc(CSc2ncn[nH]2)c(OC)cc1CSc1ncn[nH]1 > 76.9 µM
Cc1cc2cc(C(c3nnnn3CC3CCCO3)N3CCCc4ccccc43)c(=O)[nH]c2cc1C (stereo unspecified) > 76.9 µM
COCCNC(=O)C(c1ccccc1)N(Cc1cccs1)C(=O)Cn1nnc2ccccc21 (stereo unspecified) > 76.9 µM
O=C(NCCN1CCOCC1)c1cc(S(=O)(=O)NCCCN2CCCC2=O)ccc1Cl > 76.9 µM
CCCOc1nc2c(c(=O)n(C)c(=O)n2C)n1CCC > 76.9 µM
CCC(c1nnnn1C1CCCCC1)N1CCN(C2CCCC2)CC1 (stereo unspecified) > 76.9 µM
COc1ccc2cc(C(c3nnnn3Cc3ccccc3)N3CCCCCC3)c(=O)[nH]c2c1 (stereo unspecified) > 76.9 µM
COc1cc(OC)cc(C(=O)N2CCN(C(=O)COc3ccc4ccccc4c3)CC2)c1 > 76.9 µM
Cc1cc(NC(=O)CCC(=O)N(c2cccnc2)C(C(=O)NC2CCCC2)c2ccccc2)no1 (stereo unspecified) > 76.9 µM
Cc1cc(NC(=O)CCC(=O)N(c2ccccc2)C(C(=O)NC2CCCC2)c2cccs2)no1 (stereo unspecified) > 76.9 µM
O=C1c2ccccc2CC1Sc1nnc(-c2ccccn2)o1 (stereo unspecified) > 76.9 µM
CCOC(=O)N1CCN(C(=O)c2cnc(Nc3ccccc3OC)c3ccccc23)CC1 > 76.9 µM
Cc1cccc2nc(Cn3c(=O)n(CCC(=O)NCc4ccco4)c(=O)c4sccc43)cc(=O)n12 > 76.9 µM
Cc1ccc2oc(NC(=O)N3CCOCC3)cc(=O)c2c1 > 76.9 µM
CCOC(=O)c1ccc2c(c1)C1C=CCC1C(C(=O)O)N2 (stereo unspecified) > 76.9 µM
Cc1cc(C(=O)N2CCN(c3ncccn3)CC2)c2cc(F)ccc2n1 > 76.9 µM
O=S1(=O)CCN2C=C(Br)C=C(Br)C2=N1 > 76.9 µM
CC(C)(C)C(=O)OCC1OC(n2cnc(C(N)=O)n2)C(O)C1O (stereo unspecified) > 76.9 µM
CCOc1ccc(N2C(=O)CC(N3CCN(c4ccc(C(=O)c5ccncc5)cc4)CC3)C2=O)cc1 (stereo unspecified) > 76.9 µM
CCOc1ncccc1C(=O)NCC1COc2ccccc2O1 (stereo unspecified) > 76.9 µM
O=C(NCCc1ccc(Cl)cc1)c1ncn[nH]1 > 76.9 µM
CN1CCc2c(sc3c2C(=O)NC(c2ccco2)N3)C1 (stereo unspecified) > 76.9 µM
O=C(Nc1ccc(Cl)cc1C(=O)NCC1CCCO1)c1ccco1 (stereo unspecified) > 76.9 µM
Cc1ccnc(NS(=O)(=O)c2cccc3nsnc23)c1 > 76.9 µM
CCOC(=O)N1CCN(c2cc3nccnc3cc2F)CC1 > 76.9 µM
CC(C)CN(C(=O)COC(=O)Cn1cnc2ccccc2c1=O)C1CCS(=O)(=O)C1 (stereo unspecified) > 76.9 µM
CCOc1ccc(NS(=O)(=O)c2ccc(OCC(=O)N3CCCC3)cc2)cc1 > 76.9 µM
CCn1c(SCC(=O)NCCc2ccccc2)nnc1-c1ccco1 > 76.9 µM
COc1ccc(C2C(C(=O)N3CCN(c4ccccc4)CC3)c3ccccc3C(=O)N2C)cc1OC (stereo unspecified) > 76.9 µM
Cc1c(-c2ccccc2)[n+](=O)c(-c2ccco2)c(C)n1[O-] > 76.9 µM
COC(=O)c1nn(-c2c(C)n(C)n(-c3ccccc3)c2=O)cc1O > 76.9 µM
COCC(=O)Nc1ccc(N(C)C)cc1 > 76.9 µM
CCOC(=O)N1CCC(NCCNC(=O)c2ccccc2)CC1 > 76.9 µM
COCCn1nnnc1CN1CCC(Cc2ccccc2)CC1 > 76.9 µM
CCOC(=O)N1CCN(C(=O)CSCc2nc(-c3ccccc3F)oc2C)CC1 > 76.9 µM
NS(=O)(=O)c1ccc(CCNC(=O)C2CCCCN2S(=O)(=O)c2ccccc2)cc1 (stereo unspecified) > 76.9 µM
CCOc1cccc2cc(-c3nnc(NCc4ccco4)s3)c(=O)oc12 > 76.9 µM
CN(CCCNC(=O)c1cccc(N2CCCC2=O)c1)c1ccccc1 > 76.9 µM
Cc1c(NC(=O)NC(C)N2C(=O)C3C4C=CC(C4)C3C2=O)c(=O)n(-c2ccccc2)n1C (stereo unspecified) > 76.9 µM
COCc1nnc(NC(=O)CCCOc2ccccc2OC)s1 > 76.9 µM
COc1ccc(NC(=O)C2CCCN2C(=O)NCc2ccccc2)c(OC)c1 (stereo unspecified) > 76.9 µM
CCOC(=O)C1C(=O)Nc2nc3ccccc3n2C1C(C)C (stereo unspecified) > 76.9 µM
CCOc1ccc(NS(=O)(=O)c2ccc(OCC(=O)NCCCOC)cc2)cc1 > 76.9 µM
Clc1ccccc1-c1nn2c(COc3ccccc3)nnc2s1 > 76.9 µM
O=C(O)CSc1nc(-c2ccccc2)nc2c1oc1ccccc12 > 76.9 µM
CC1CCCC(NC(=O)CN2CCN(Cc3ccc(Cl)cc3)C2=O)C1C (stereo unspecified) > 76.9 µM
Cc1cccc(NC(=O)CCN2C(=O)C3C4C=CC(C4)C3C2=O)n1 (stereo unspecified) > 76.9 µM
O=C(O)c1ccc(OC(F)(F)C(F)C(F)(F)F)cc1 (stereo unspecified) > 76.9 µM
COc1ccc(NC(=O)Nc2cc(C)ccc2OC(F)F)c(OC)c1 > 76.9 µM
N#CCCn1ncn(-c2ccccc2)c1=S > 76.9 µM
CCc1cc(=O)oc2cc(OCc3nn[nH]n3)ccc12 > 76.9 µM
CCOC(=O)C1=C(O)C(Nc2nccs2)(C(F)(F)F)N=C1C (stereo unspecified) > 76.9 µM
COC(=O)C1=CN(C(C)C)C=C(C(=O)OC)C1c1cc2c(cc1Br)OCO2 > 76.9 µM
COc1ccc(CCNC(=O)CCN2C(=O)C3CC=CCC3C2=O)cc1OC (stereo unspecified) > 76.9 µM
CCCCCn1c(=NC(C)=O)c(C#N)cc2c(=O)n3cccc(C)c3nc21 > 76.9 µM
Cn1c(SCc2nc3ccccc3[nH]2)nnc1-c1cccnc1 > 76.9 µM
O=C(NC1=NCCS1)c1ccc2c(c1)C(=O)N(Cc1ccco1)C2=O > 76.9 µM
CCOC(=O)C1=C(C)Nc2ncnn2C1c1ccc2c(c1)OCO2 (stereo unspecified) > 76.9 µM
COc1ccccc1NC(=O)Nc1ncccc1C > 76.9 µM
COc1ccccc1NC(=O)CN1CCN(CC(=O)Nc2ccc3c(c2)OCCO3)CC1
CC(=O)c1c(COC(=O)c2ccco2)nc2ccccc2[n+]1[O-] > 76.9 µM
Cn1c(=O)c2c(ncn2CCCNC2=CC(C)(C)CC(=O)C2)n(C)c1=O > 76.9 µM
CC(Oc1ccc(C(=O)NC2CCCCC2)cc1)C(=O)O (stereo unspecified) > 76.9 µM
CCOC(=O)c1cccc(NC(=O)CN(C)S(=O)(=O)c2cnc[nH]2)c1 > 76.9 µM
CCN1c2ccccc2-c2nc3ccccc3n2C1c1ccncc1 (stereo unspecified) > 76.9 µM
CCCc1cc(N2CCCC2)n2nc(C)c(-c3ccccc3)c2n1 > 76.9 µM
CCCNC(=O)c1c(C)cc(=O)oc1C > 76.9 µM
Cc1ccc(N2C(=O)c3n[nH]c(C)c3C2c2ccccn2)cc1 (stereo unspecified) > 76.9 µM
Cc1cccn2c(=O)c3cc(C(=O)NCCN4CCOCC4)n(Cc4ccccc4)c3nc12 > 76.9 µM

Reference: PubChem BioAssay AID360 (National Center for Advancing Translational Sciences (NCATS), 2006)
